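Each compound was tested at five concentrations against cells in 96-well plates for 48 hours. GI50 = concentration required for 50% inhibition of growth.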 Certain results were filed several times, with different values. They are shown here; other results are not. There may be further records. The tests behind the records often covered other concentration ranges, which the source does not state; a value can be the end of its range.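 TGI denotes the concentration required for complete inhibition of growth.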

The test relates to MDA-MB-468 breast. In words: growth of human tumour cells (NCI), 48 h.

Take `COC(=O)C12CC(NC(=O)c3csc([C@@H](C[C@H](C(C)C)N(C)C(=O)[C@@H](NC(=O)[C@H]4CCCCN4C)C(C)C)OC(C)=O)n3)(C1)C2`: the GI50 is 0.226 nM and 3.33 nM; the TGI was 0.862 nM and > 33.3 µM.

The values above are taken from PubChem BioAssay (NCI).
